# Experimental data from the supplement of paper PMC6746778.
# Counter-ions that a name gives are not always drawn. Some of the results follow. Many values rest on one well or one pass, so single values are uncertain.
# Key:
# Test in all cases: proliferation Z-score within cell line (SRB, relative to all inhibitors screened on that line); triple-negative breast cancer lines and a kinase inhibitor library; SRB is the sulforhodamine B protein stain; higher = less growth inhibition (more resistant)
# Conditions in all cases: concentration: 1 µM; 4 days
# [1] = tested on: Bt20
# [2] = tested on: Bt549
# [3] = tested on: HCC1143
# [4] = tested on: HCC1806
# [5] = tested on: HCC1937
# [6] = tested on: HCC38
# [7] = tested on: HCC70
# [8] = tested on: Hs578T
# [9] = tested on: MDA-MB-231
# [10] = tested on: MDA-MB-435s
# [11] = tested on: MDA-MB-436
# [12] = tested on: MDA-MB-453
# [13] = tested on: MDA-MB-468
# [14] = tested on: SKBR7
# [15] = tested on: SUM1315MO2
# [16] = tested on: SUM149PT
# [17] = tested on: SUM159PT
# [18] = tested on: SUM185PE
# [19] = tested on: SUM229PE
# [20] = tested on: SUM52PE
# 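Note: Single-dose primary screen of a 378-member kinase inhibitor library in 96-well plates, with growth read as absorbance of protein-bound SRB dye after TCA fixation.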
SMILES,proliferation Z-score within cell line [1],proliferation Z-score within cell line [2],proliferation Z-score within cell line [3],proliferation Z-score within cell line [4],proliferation Z-score within cell line [5],proliferation Z-score within cell line [6],proliferation Z-score within cell line [7],proliferation Z-score within cell line [8],proliferation Z-score within cell line [9],proliferation Z-score within cell line [10],proliferation Z-score within cell line [11],proliferation Z-score within cell line [12],proliferation Z-score within cell line [13],proliferation Z-score within cell line [14],proliferation Z-score within cell line [15],proliferation Z-score within cell line [16],proliferation Z-score within cell line [17],proliferation Z-score within cell line [18],proliferation Z-score within cell line [19],proliferation Z-score within cell line [20]
CN(C)Cc1cccc(N=C(c2ccccc2)c2c(O)[nH]c3cc(C(N)=O)ccc23)c1,0.41,0.641,1.11,0.554,0.762,0.602,0.662,0.7,0.748,0.861,0.957,1.05,0.819,0.565,0.598,0.647,0.68,0.295,0.272,0.658
O=c1cc(CN2CCOCC2)occ1OCCCCCSc1ccnc2cc(C(F)(F)F)ccc12,-0.99,-1.02,-0.224,-1.49,-1.06,-2.16,-0.447,-1.28,0.674,-0.0717,-0.459,-1.66,-0.339,-1.36,-0.528,-0.0899,-0.314,-0.686,-0.302,-0.348
COc1ccc2c(c1)c(C1=C(c3c[nH]c4ccccc34)C(=O)NC1=O)cn2CCCN(C)C,0.319,0.628,0.251,0.442,0.469,0.513,0.394,0.592,0.663,0.538,0.885,0.99,0.764,0.376,0.411,0.8,0.304,-0.15,-0.0454,0.21
Oc1ccc2ccccc2c1SSc1c(O)ccc2ccccc12,0.85,0.403,0.0964,0.563,0.177,0.489,0.0514,0.785,0.721,0.734,0.356,0.571,1.08,0.348,0.756,0.551,0.213,0.486,0.558,0.681
CCCCOc1c(C(=O)c2c(F)cc(C)cc2F)c[nH]c2nncc1-2,-0.302,0.447,0.571,0.23,0.441,0.589,0.439,0.631,1.02,0.788,0.169,0.313,0.535,-0.235,0.816,0.0873,0.511,0.0564,0.149,0.476
COc1ccc(-c2cc3c(C)nc(N)nc3n([C@H]3CC[C@H](OCCO)CC3)c2=O)cn1,-1.65,-1.74,-0.942,-1.31,-1.68,-0.741,-1.7,-1.91,-1.27,-1.43,-1.33,-1.55,-1.27,-1.54,-1.48,-1.3,-1.13,-1.68,-1.53,-1.27
O=c1c(-c2ccc(O)cc2)coc2cc(O)cc(O)c12 [Genistein],-0.121,0.394,0.691,0.481,0.857,0.319,0.477,0.547,0.632,0.779,0.513,0.459,0.571,-0.0951,0.594,0.37,0.383,-0.0161,0.0525,0.449
Cc1cc(Nc2nc(N[C@@H](C)c3ncc(F)cn3)ncc2Cl)[nH]n1,0.762,0.0344,0.622,0.612,0.918,0.143,0.704,-0.706,0.0093,0.0858,1.02,-0.817,-0.708,-0.479,-1.3,0.735,0.561,-1.67,0.495,-1.44
"Nc1cc(C(F)(F)F)c(-c2cc(N3CCOCC3)nc(N3CCOCC3)n2)cn1 [BKM120 (NVP-BKM120, Buparlisib)]",-1.15,-1.17,-0.966,-1.08,-1.63,-0.376,-1.51,-1.78,-0.734,-1.91,-1.44,-2.14,-1.14,-0.758,-1.07,-0.955,-1.88,-1.83,-1.37,-1.12
CS(=O)(=O)N1CCN(Cc2cc3nc(-c4cccc5[nH]ncc45)nc(N4CCOCC4)c3s2)CC1,-0.856,0.201,-1.13,-0.0256,-0.556,0.535,-1.05,0.422,-0.202,-0.455,-0.45,0.542,-0.292,0.597,-0.98,0.229,0.399,-1.64,-0.539,-1.07
CN(C)c1ccc(-c2nc3ncc(Cl)c(N4CCN(CC(=O)Nc5nccs5)CC4)c3[nH]2)cc1,0.421,0.557,0.763,0.76,0.485,0.602,0.692,0.631,0.703,0.743,0.327,0.803,0.745,1.13,0.312,0.836,0.683,0.509,0.431,0.0679
N=C(N)NC(=N)NCCc1ccccc1 [Phenformin HCl],0.674,0.569,0.845,0.74,0.726,0.667,0.609,0.554,0.897,1.07,0.52,0.99,1.06,0.59,1.15,0.982,0.695,0.931,0.888,1.16
COc1ccc2cc(-c3nc(-c4ccc([S+](C)[O-])cc4)[nH]c3-c3ccncc3)ccc2c1 (stereo not given) [Tie2 kinase inhibitor],1.23,0.528,-1.01,0.593,-0.402,0.6,-0.717,0.721,0.768,0.833,-0.656,0.847,0.991,0.511,0.984,0.718,0.586,1.33,0.883,1.47
Cc1cc(O)c2c(c1)C(=O)c1cccc(O)c1C2=O [Chrysophanic Acid],0.843,0.815,0.744,0.651,0.889,0.648,0.632,0.794,0.888,0.947,0.537,0.905,1.07,0.294,1.22,0.929,0.452,1.1,0.379,1.04
COc1cc(CCc2cc(NC(=O)c3ccc(N4CC(C)NC(C)C4)cc3)n[nH]2)cc(OC)c1 (stereo not given),1.17,0.226,0.534,0.843,0.599,0.581,0.871,0.57,0.84,1.01,1.29,-0.71,1.37,0.959,-0.742,0.942,0.664,-1.26,0.72,-1.19
O=C1NCCc2[nH]c(-c3ccncc3)cc21,0.611,0.462,0.379,1.06,0.57,0.717,-0.218,0.958,0.596,1.06,1.46,-0.309,-0.056,0.458,1.07,0.974,0.502,0.847,0.935,0.715
Cc1cc(Nc2ncc(Cl)c(Nc3ccccc3S(=O)(=O)C(C)C)n2)c(OC(C)C)cc1C1CCNCC1,0.592,0.613,0.334,0.186,0.471,0.435,0.442,0.418,0.201,-0.254,0.597,0.837,0.792,0.6,1.23,0.518,0.508,1.36,0.334,1.2
Cc1ccc(S(=O)(=O)Nc2nc3ccccc3nc2Nc2ccc3nsnc3c2)cc1,0.606,0.377,-0.22,0.648,-0.518,0.596,0.0684,0.558,0.453,0.734,-0.574,0.776,0.554,0.654,0.455,0.517,0.0398,0.474,1.03,1.13
C[C@]1(O)C[C@@H](c2nc(-c3ccc4ccc(-c5ccccc5)nc4c3)c3c(N)nccn32)C1 [OSI-906 (Linsitinib)],0.503,0.251,0.469,-0.247,0.706,0.0155,0.748,0.654,-0.0903,-0.48,0.392,-0.446,0.376,-1.31,-0.355,-0.353,0.131,0.175,-0.877,0.478
CC(C)(C)n1nc(-c2ccc(Cl)cc2)c2c(N)ncnc21,-0.105,0.775,0.517,0.555,0.715,0.476,0.549,0.614,0.472,0.494,0.822,0.824,0.621,0.339,-0.401,-0.134,0.552,0.354,0.036,0.188
O=C1NC(=O)C(c2ccccc2[N+](=O)[O-])=C1Nc1ccc(O)c(Cl)c1,0.6,0.658,0.887,0.74,0.711,0.546,0.695,0.623,1.18,0.968,0.717,0.966,1.07,0.646,0.859,0.842,0.618,0.673,0.623,0.826
CC(C)(O)CC(=O)NCCn1ccc2ncnc(Nc3ccc(Oc4cccc(C(F)(F)F)c4)c(Cl)c3)c21,0.279,0.785,0.415,-0.508,0.263,0.561,0.76,0.681,0.786,0.976,0.643,-0.313,0.0357,0.844,0.745,0.55,0.602,0.502,0.884,0.692
CCOC(=O)c1cnc2ccc(-c3cncc(NS(=O)(=O)c4ccccc4)c3)cn12,-3.02,-2.43,-2.83,-1.94,-2.92,-2.83,-2.22,-2.88,-2.17,-2.5,-1.67,-1.92,-2.54,-2.16,-2.32,-2.45,-3.54,-1.72,-2.16,-1.67
CNCc1ccc(-c2cc(-c3nc(-c4ccc(S(=O)(=O)C(C)C)cc4)cnc3N)on2)cc1,-1.47,-0.31,0.56,-1.29,0.192,0.455,0.523,0.708,-1.42,-0.668,-0.552,-0.158,-1.39,-0.877,-0.257,-2.51,0.0751,-0.336,-1.01,0.104
Fc1cc(-c2cccc3ncc(-c4cnn(C5CCNCC5)c4)nc23)cc(F)c1CN1CCOCC1,0.885,0.871,0.766,0.862,0.715,0.655,0.665,0.761,0.957,0.713,0.405,0.96,0.805,0.185,0.872,0.914,0.523,0.396,0.605,0.772
